± gives the standard deviation of the averaged measurements. Some of the results follow.

The assay concerns PfAP2-LT AP2 domain (GST-tagged). The assay can be described thus: gcPBM binding intensity (ln(normalized median fluorescence intensity)); higher = stronger DNA binding. The essentials:
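Binding intensity is the highest Masliner-normalised natural-log median intensity over replicate spots in either probe orientation. To obtain it, GST-tagged P. falciparum DNA-binding domains made in E. coli were incubated for 1 h on an Agilent 4 × 180k array of primer-extended double-stranded 36-bp intergenic genomic probes plus negative controls. Detection used Alexa488 anti-GST antibody with scanning at 488 nm.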
In the case of “TCTTACGGATTCATTGTGCACATATATATATATATA [GTGCAC_site9896]”, the “gcPBM binding intensity (ln)” value stood at 9.715 ± 0.0071.
Next, “GCTCTTTTGTTATGGTGTACCCTCCATGTAACATAA [XGTACX_site91]”: 8.84 ± 0.42.
On to “TTAATAATTCTTAAAAGTACATAACTTTTTTTTTTT [XGTACX_site751]”, for which the “gcPBM binding intensity (ln)” value was 8.3 ± 0.7.
Next, “TTTTTTATTAAAAGTAGTACACATGAAAAAAAAAAA [XGTACX_site5524]”: 8.52 ± 0.48; “TTAATATAGATATAACCACACACATACATCTAATTC [CACACA_site8519]”: 9.33 ± 0.28; “ATTTTTATAGAAATATGTACACAATATGTATATATT [XGTACX_site7993]”: 8.74 ± 0.45.
For the sequence “TTTAAAAAAATTCATGCACACGAAATAAAAAGCACC [CACACA_site8214]”, the “gcPBM binding intensity (ln)” value is 9.14 ± 0.33.
Regarding “TCTTTTATGCACATTGAGTAAACAACATATTTTTAA [TGCATGCA_negctrl_site561]”, the “gcPBM binding intensity (ln)” value was found to be 8.48 ± 0.45.
Then “AATAAAAACTACATGTGTACATAATAAATACATATA [XGTACX_site755]”, with 9.03 ± 0.47.
Then “TTTTTTCTTTTCTTTTTATTTTATTTTGTTTTATTT [CACACA_negctrl_site799]”, with 8.61 ± 0.57; and “ATAATCCAAAAAAATCAAATAAAATAAAATAAAATA [CACACA_negctrl_site449]”, with 8.49 ± 0.55; and “TAAAAATATTTAAACTGTACTATTTTATGTTAAATG [XGTACX_site6620]”, with 8.43 ± 0.5.
On to “TGAACCAGATTTAGAAGTACTAAATATTACATACAT [XGTACX_site2437]”, for which the “gcPBM binding intensity (ln)” value came out at 8.7 ± 0.47.
Next, “TGTTGCAAAACAAAAAAAAAAAAAAAAAATAATAAT [CACACA_negctrl_site1642]”: 8.63 ± 0.57; “AGAATATTTATATGATGTACTTATATATATATATAT [XGTACX_site3021]”: 9.12 ± 0.12.
For “ATTTTAATGGGACATGCATGGGACAAACTACAAATT [TGCATGCA_site853]”, the “gcPBM binding intensity (ln)” value amounted to 9.09 ± 0.43.
Take “CAGAAATATTAATGCTGTACGGAATACATATATTTT [XGTACX_site539]”: the “gcPBM binding intensity (ln)” value was 8.69 ± 0.47.
Take “TATATATTAAAACACACACACATATATATATATATA [CACACA_site3787]”: the “gcPBM binding intensity (ln)” value was 9.93 ± 0.18.
Then “ATAAACATCGGTAGTACACACATTCATGTACTTGAT [CACACA_site3037]”, with 9.14 ± 0.36.
With “AATTTGTAAAATAAGGTGCGTATAAAAAATTATATT [GTGCAC_site9676]”, the “gcPBM binding intensity (ln)” value stood at 8.73 ± 0.46.
As to “ATTTAATAAAAAAAAAAAATATTGTAGAATATGATG [GTGCAC_negctrl_site195]”, the “gcPBM binding intensity (ln)” value was determined as 8.27 ± 0.52.
In the case of “CAAATGGTAAATGAAAGTACAAATTGTTTTGATTAA [XGTACX_site1536]”, the “gcPBM binding intensity (ln)” value stood at 8.9 ± 0.4.
As for “ATATACATATTCTTGTGTACATAAAAATTTATATAT [XGTACX_site8726]”, the “gcPBM binding intensity (ln)” value was 8.74 ± 0.35.
Then “TTATATTTTATATTTACACACATTTATATTTATAAA [CACACA_site203]”, with 8.78 ± 0.44; and “TTTATAATTTTAAAATGTACAAGGAGGAAAAATTCT [XGTACX_site422]”, with 8.49 ± 0.38; and “TATATAAATATTCGTAGTACAATACAATTATAAGTA [XGTACX_site3068]”, with 8.71 ± 0.43.
“TATATATTTTTTTCAAGTACACATTACAGTTACATA [XGTACX_site2713]”: the “gcPBM binding intensity (ln)” value turned out to be 8.65 ± 0.38.
Then “ATTCGATGTTTTAAATGTACACAAATTGAAGGAATA [XGTACX_site409]”, with 8.7 ± 0.42; and “ATGTTTTCTCTTTCGGTGCATTGTTTTCTATACTTT [GTGCAC_site9483]”, with 9.22 ± 0.52.
Next, “GTATATAATTTTTTTTTTTTTTTCATTCTTTTCCTT [CACACA_negctrl_site1780]”: 8.46 ± 0.59.
As to “AAATATATGAAATATACACACTTCTTTGGTATTATT [CACACA_site4414]”, the “gcPBM binding intensity (ln)” value was found to be 8.91 ± 0.38.
On to “ATGAATTGACCATATTGTACATATTTAGGACTTACC [XGTACX_site8072]”, for which the “gcPBM binding intensity (ln)” value worked out at 8.87 ± 0.38.
Next, “TTTTCTTACATGAGTGTACACACTTTTTTTCAGAAA [CACACA_site70]”: 8.79 ± 0.42; “TTTATATAATTTTAATGTACATATATATATATAAAT [XGTACX_site4381]”: 8.51 ± 0.42; “TATCTATAATATTATACACACATATATGCATAATAT [CACACA_site6175]”: 9.16 ± 0.39.
Next, “TAATAAATAAGATTCACACATATTTAAATGTTATGC [CACACA_site5275]”: 8.66 ± 0.35.
Next, “TTCTTCACATACACTTCAAAATTTGATAAAACATTA [CACACA_negctrl_site472]”: 8.52 ± 0.47; “ATATATCATAAATAAATGAAAATATTTTCTATGTGT [CACACA_negctrl_site689]”: 8.66 ± 0.41.
As for TTATTTGAATAATGTTTGCACTTAGAGTATTTTATA, the “gcPBM binding intensity (ln)” value is 8.65 ± 0.37.
On to “TATTATAAAACATTATGTACATATTCTGAAAAATAG [XGTACX_site6577]”, for which the “gcPBM binding intensity (ln)” value stood at 8.57 ± 0.35.
In the case of “CAAAATAAAAAATTCACACACATATATATATATATA [CACACA_site2088]”, the “gcPBM binding intensity (ln)” value came to 9.78 ± 0.12.
Then “TATTTCTTATTTATTTTTTAAGGAAATTAAAGATTT [CACACA_negctrl_site258]”, with 8.04 ± 0.27.
Regarding “AAAACAAATGCTTAAAGTACTTATTATTTTTCTTTT [XGTACX_site6324]”, the “gcPBM binding intensity (ln)” value came to 8.62 ± 0.47.
Next, “TTCCTACTATTCAAACGTACAAAATATTTAAATAAT [XGTACX_site700]”: 8.39 ± 0.35; “TAAAAATATCTGTATACACACATATATATATATATA [CACACA_site6042]”: 9.59 ± 0.13.
Then “AAAAAAAAAAAAAAAAGTACAAATCTTTATTTATTA [XGTACX_site3305]”, with 8.29 ± 0.46; and “CAAGTTCAAAATACAAGGAAGAAACAAAACTTGGCG [GTGCAC_negctrl_site600]”, with 9 ± 0.48; and “ATAATATAATATAAAACACACATATGTACCTTCTAA [CACACA_site2761]”, with 8.91 ± 0.35.
Next, “TAATATTTCTTATTTTATATTTGTATATGAATGGAT [XGTACX_negctrl_site278]”: 8.54 ± 0.51; “TATTTTTACCCATAAAGTACACATAAATATAAAATA [XGTACX_site177]”: 8.55 ± 0.46; “TATATATCTATATATTGTACATATGTTTGTATGTGT [XGTACX_site7420]”: 9.23 ± 0.47.
On to “ATATAAATCATTGGTTGTACATATAATATTTTATAA [XGTACX_site925]”, for which the “gcPBM binding intensity (ln)” value is 8.55 ± 0.35.
Consider “TATGATATCTATAATACACACATATACATAAGATCT [CACACA_site6652]”, for which the “gcPBM binding intensity (ln)” value is 8.93 ± 0.33.
Next, “TTAATATAACTTTTTGCACACTTAATTTTTTTTTTT [CACACA_site3364]”: 8.98 ± 0.52.
Regarding “TTATATAAAACATTAACACACAAAGAAAAAAAATTA [CACACA_site1793]”, the “gcPBM binding intensity (ln)” value was 8.79 ± 0.49.
Take “TATATATTAGAAGATAGTACATATATATTTATTAAT [XGTACX_site1011]”: the “gcPBM binding intensity (ln)” value stood at 8.63 ± 0.39.

Values taken from the supplement of paper PMC11417369.
